Hit rate of the full screen: of about 150,000 compounds, about 540 (0.36%) showed an effect of 50% or more. The list shows a part of the results.

The subject of the assay is Plasmodium falciparum. The experiment in a line: Primary screen in NF54 nanoGlo assay, in single point, at 2uM, 72h; a lower Z score goes with more inhibition. The assay is classed as functional, Erythrocyte. The conditions noted are these: timepoint 72 hour.
`Cc1nc([C@@H]2CCCN2c2cnccn2)cs1`: the “% Inhibition” value is listed as -5% and the Z score stood at 0.58.
Consider `CN(C)c1nc(N)nc(CN2CC(O)(c3ccc(Cl)cc3)C2)n1`, for which the “% Inhibition” value stood at 8% and the Z score is listed as -1.67.
For `CCCc1nc2cc(CCC(=O)Nc3cccc(Cl)c3)ccc2[nH]1` the same measures were -3% and 0.4.
For `O=C(Nc1nccs1)c1cc2c(s1)CCCC2` the same measures were -13% and 1.11.
`c1cn(CCCn2ccnc2-c2ccc([C@@H]3CCCCO3)o2)cn1`: the “% Inhibition” value is given as 6% and the Z score was -1.06.
Taken in the same sequence, the figures for `Cc1nc(-c2nc(C[C@H]3CNCCO3)n(C3CCCCC3)n2)cs1` were -8% and 1.61.
Taken in the same sequence, the figures for `CCC(CC)(CNc1ccnc2cccnc12)C(=O)O` were -8% and 0.98.
Taken in the same sequence, the figures for `CCN(Cc1ccco1)C(=O)c1ccc2noc(-c3ccccc3)c2c1` were 0% and 0.
Turning to `NC(=O)N1CCN2C(=O)N(Cc3cccnc3C(F)(F)F)C(=O)[C@@H]2C1`, the “% Inhibition” value worked out at 17% and the Z score was -2.14.
Taken in the same sequence, the figures for `O=S(=O)(c1ccc(-c2cc(C(F)(F)F)on2)o1)N1CCCCCC1` were -4% and 0.59.
As to `CCC(C)C(NC(=O)NCCCC1C=NNC1=O)C(F)(F)F` (centres undefined), the “% Inhibition” value was found to be 18% and the Z score is -2.23.
For `Cc1cnc2cc(C(=O)N[C@H]3CCC[C@H]3CO)ccn12` the same measures were -6% and 0.96.
For `COc1ncccc1N(C)C(=O)c1cccc(-c2ccoc2)c1` the same measures were -7% and 0.59.
For `CC1(C)C[C@@]1(NC(=O)NC1CCC(OC(F)F)CC1)c1ccccc1` (some centres undefined) the same measures were -8% and 1.12.
In the case of `CC(=O)Nc1ccc(S(=O)(=O)N2CCOC3(CCOCC3)C2)cc1`, the “% Inhibition” value was determined as 6% and the Z score is on record as -0.99.
For `COc1cccc(S(=O)(=O)N2CCc3nc(NC(=O)c4ccc(F)c(F)c4)sc3C2)c1` the same measures were 5% and -0.51.
Taken in the same sequence, the figures for `Cc1cc(C(=O)N2CC(C(=O)Nc3ncc(C)s3)C2)no1` were 3% and -0.47.
Taken in the same sequence, the figures for `CCc1nc(CN2C(=O)COc3ccc(S(=O)(=O)N4CCN(CC)CC4)cc32)no1` were -3% and 0.31.
As for `COc1ccc(-c2cc(C(=O)N3CCc4[nH]cnc4C3)[nH]n2)cc1`, the “% Inhibition” value was -4% and the Z score was determined as 0.46.
Taken in the same sequence, the figures for `Cc1nc(N(C)C)nc(-c2ccccc2CO)c1C` were -3% and 0.26.
Taken in the same sequence, the figures for `NS(=O)(=O)c1ccc(CCNC(=O)[C@@H]2CCCN3CCCC[C@H]23)cc1` were -4% and 0.9.
For `CCn1c(CN2CCCCCC2)nc2cc(S(=O)(=O)N3CCCCC3)ccc21` the same measures were -7% and 1.02.
Take `O=C(CCCc1ccccc1)N1CCC(n2cnnc2C2CC2)CC1`: the “% Inhibition” value is listed as -4% and the Z score turned out to be 0.75.
With `Cc1c2c(=O)n(-c3nc4ccccc4s3)n(Cc3ccc(F)cc3)c2cc(=O)n1CCCN1CCOCC1`, the “% Inhibition” value was 32% and the Z score is -3.58.
Taken in the same sequence, the figures for `CC1CCN(C(=O)[C@H]2CCc3ncc(-c4ccc(F)cc4)n3C2)CC1` were -7% and 1.27.
On to `OC[C@H]1CCCN1Cc1nnc(-c2ccc(Br)cc2)o1`, for which the “% Inhibition” value amounted to 5% and the Z score was -1.09.
For `O=C(Cc1ccccc1Cl)N1CC(OCC(F)(F)F)C1` the same measures were 8% and -1.19.
Turning to `CCCc1ccc(-c2nccn2C[C@H]2CN(C(C)=O)CCO2)o1`, the “% Inhibition” value is -6% and the Z score is listed as 0.71.
For `Cn1cccc1-c1cc2n(n1)CCC(=O)N2CCCC(=O)NCCN1CCOCC1` the same measures were -8% and 1.59.
For `CN1C[C@@H](c2nc(Cn3cc(Br)cn3)no2)NCC1=O` the same measures were -7% and 1.45.
As to `O=C(c1nc2ccccc2s1)N1CCC[C@H](c2cc(F)ccc2F)C1`, the “% Inhibition” value was -16% and the Z score came to 2.13.
For the compound `CCN(C(=O)c1cccc(-c2cc(F)ccc2C(C)=O)c1)[C@H]1COC[C@@H]1O`, the “% Inhibition” value is -5% and the Z score is recorded as 1.
For `CC(=O)Nc1nc(C(=O)N2CC3(CCOCC3)[C@@H]2C2CC2)cs1` the same measures were -2% and 0.31.
For `CCN(CC)c1nc(N)cc(N2CC[C@@H](O)C2)n1` the same measures were -13% and 2.46.
For the compound `CNC[C@H]1CCCN1C(=O)c1cc2ccc(C)cc2nc1C`, the “% Inhibition” value was 1% and the Z score is -0.07.
Taken in the same sequence, the figures for `CC1=NO[C@@H](CNS(=O)(=O)c2cc(F)cc(Cl)c2)C1` were 10% and -1.12.
For `CCc1nc(CN2CCOCC2)n(-c2ccc(C(F)(F)F)cc2)n1` the same measures were -7% and 0.94.
For `CC(C)n1c(=O)c(-c2ccc(C(=O)NCc3ccc(N4CCOCC4)cc3)cc2)nc2cccnc21` the same measures were -5% and 0.73.
With `COc1ccccc1NC(=O)C1C(=O)NC23CCCCC2C1c1ccccc1O3` (centres undefined), the “% Inhibition” value is recorded as -8% and the Z score was determined as 1.04.
For `CC[C@@H](COC)Nc1ncnc2sc(C(=O)N3CCCC3)c(C)c12` the same measures were -1% and 0.09.
Taken in the same sequence, the figures for `Cc1noc2ncnc(N[C@H]3CCCc4sccc43)c12` were -2% and 0.18.
Taken in the same sequence, the figures for `Cc1cc(Cl)ccc1/N=C(\NCCc1c(C)nn(C)c1C)NC(=O)c1ccc(F)cc1` were -3% and 0.65.

(Values after ChEMBL document CHEMBL4888484, “Replenishing the malaria drug discovery pipeline: Screening and hit evaluation of the MMV Hit Generation Library 1 (HGL1) against asexual blood stage Plasmodium falciparum ,using a nano luciferase reporter read-out” (2022).)
